# Measured values as given in paper PMC4336329 (PLoS ONE, 2015).
# About 14,000 (4.5%) of roughly 310,000 compounds showed an effect of 50% or more. The effect is printed as a negative number. Some of the results follow.
# Molecular target: human ether-à-go-go-related gene (hERG) potassium channel (human, UniProt Q12809)
# Assay: primary screen, population patch clamp on CHO cells stably expressing hERG
# 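Further: peak tail current of the secondary pulse compared with the same well before compound.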
# Sequence of human ether-à-go-go-related gene (hERG) potassium channel (Q12809 whole entry, looked up): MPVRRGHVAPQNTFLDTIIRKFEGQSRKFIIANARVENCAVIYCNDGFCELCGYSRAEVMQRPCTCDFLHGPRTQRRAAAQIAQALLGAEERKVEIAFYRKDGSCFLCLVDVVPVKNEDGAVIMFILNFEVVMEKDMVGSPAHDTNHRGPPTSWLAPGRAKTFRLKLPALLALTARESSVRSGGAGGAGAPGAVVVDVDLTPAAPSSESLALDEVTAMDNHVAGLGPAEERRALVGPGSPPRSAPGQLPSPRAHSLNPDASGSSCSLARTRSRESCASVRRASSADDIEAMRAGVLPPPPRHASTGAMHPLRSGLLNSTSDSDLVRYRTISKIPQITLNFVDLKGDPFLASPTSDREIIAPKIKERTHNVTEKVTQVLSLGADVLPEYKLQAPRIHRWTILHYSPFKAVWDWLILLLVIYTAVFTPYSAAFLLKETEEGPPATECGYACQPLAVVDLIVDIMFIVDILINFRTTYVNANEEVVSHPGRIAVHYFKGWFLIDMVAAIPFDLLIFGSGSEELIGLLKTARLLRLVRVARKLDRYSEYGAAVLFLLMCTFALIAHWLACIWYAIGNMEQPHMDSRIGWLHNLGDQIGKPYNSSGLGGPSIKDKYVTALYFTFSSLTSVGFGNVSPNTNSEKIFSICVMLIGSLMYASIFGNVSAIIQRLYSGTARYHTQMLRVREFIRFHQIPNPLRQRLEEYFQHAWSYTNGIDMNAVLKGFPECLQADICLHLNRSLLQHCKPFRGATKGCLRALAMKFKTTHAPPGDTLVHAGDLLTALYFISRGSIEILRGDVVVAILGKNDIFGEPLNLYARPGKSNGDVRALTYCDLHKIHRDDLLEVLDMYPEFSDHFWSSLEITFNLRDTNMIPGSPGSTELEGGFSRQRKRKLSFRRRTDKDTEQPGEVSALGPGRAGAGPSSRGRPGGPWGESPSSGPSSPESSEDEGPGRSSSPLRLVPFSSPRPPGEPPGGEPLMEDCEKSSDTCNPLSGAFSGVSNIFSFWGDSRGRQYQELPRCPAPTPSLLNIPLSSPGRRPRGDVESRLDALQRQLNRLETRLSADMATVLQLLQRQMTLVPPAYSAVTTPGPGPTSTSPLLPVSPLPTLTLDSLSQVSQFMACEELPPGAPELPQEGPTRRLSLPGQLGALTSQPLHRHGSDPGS
row,SMILES,"hERG current change (%, negative = inhibition) at 10uM [%]"
1,COc1cc([C@H]2Oc3c(OC)cc(CCCO[C@@H]4O[C@H](CO)[C@@H](O)[C@H](O)[C@H]4O)cc3[C@@H]2CO)ccc1O,0.467
2,CN1CCN(Cc2nc3c([nH]2)c(=O)[nH]c(=O)n3C)CC1,-10.6
3,COc1ccccc1NC(=O)C1CCN(S(=O)(=O)c2cccs2)CC1,-7.13
4,CCN(C(=O)COC(=O)c1oc2ccc(OC)cc2c1C)C1CCCCC1,-4.08
5,CC(C)OC(=O)c1cc2c(ccn2-c2ccc(F)cc2)n1CC(=O)N1CCN(C(=O)c2ccco2)CC1,-69.2
6,CCOC(=O)c1c(-c2ccc(C)cc2)csc1NC(=O)C1CC=CCC1C(=O)O (stereo not drawn),-10.3
7,CCOC(=O)c1ccc2c(c1)nc(-c1ccccn1)n2CC,15.5
8,COc1cccc(/C=C/c2n[nH]c(=O)c(C#N)c2C)c1,14.6
9,Cc1ccc(-c2nc3c(c(SCC(=O)N4CCOCC4)n2)Cc2c(CO)cnc(C)c2O3)cc1,3.93
10,Cc1ccc(-c2nnc(Cc3ccc(Cl)cc3)o2)cc1,8.63
11,CCN(CC(=O)Nc1ccc(Cl)c(S(=O)(=O)N(C)C)c1)Cc1nc2ccccc2c(=O)[nH]1,-34.5
12,O=C(Nc1cccnc1)c1cc(-c2ccccc2)on1,5.06
13,O=C(NN1C(=O)c2ccccc2NC1c1ccco1)c1ccccc1 (stereo not drawn),-0.469
14,CCOC(=O)CC1C(=O)NCCN1S(=O)(=O)c1ccc(OC)cc1 (stereo not drawn),6.63
15,N/C(=N\OC(=O)c1ccccc1Cl)c1cccc([N+](=O)[O-])c1,10.2
16,CCCc1cc(C(=O)Nc2cc(OC)ccc2OC)cs1,7.15
17,O=C(O)c1ccc(/C=N/NC(=O)c2ccc(F)cc2)cc1,17.9
18,N#C/C(=C\c1cn(-c2ccccc2)nc1-c1cccnc1)c1nnc2n1CCCCC2,-63.2
19,COc1ccc(-c2cccc(C3CC=CC4C3C(=O)N(Cc3ccccc3)C4c3ccc(C(F)(F)F)cc3)c2)cc1 (stereo not drawn),15.8
20,FC(F)(F)c1nc2ccccc2nc1N/N=C/c1ccc(Cl)cc1,10.2
21,CSCCC(NC(=O)c1ccc([N+](=O)[O-])cc1Cl)C(=O)OC(C)C(=O)NCc1ccco1 (stereo not drawn),-61.7
22,Cc1nc(NCC2CCCO2)c2oc3ccccc3c2n1 (stereo not drawn),-0.928
23,CS(=O)(=O)c1ccc(-c2nnn(CC(N)=O)n2)cc1,27.7
24,Cc1ccc(C(=O)Nc2ccc3c(c2)OCCO3)o1,2.93
25,O=C(CCCOc1ccc(Cl)cc1Cl)N/N=C\C1CCCCC1,14.4
26,Cc1ccc(-c2cnc(-c3ccccc3C(=O)O)o2)cc1,32.7
27,Cc1nccn1CCCNC(=O)CC1C(=O)NCCN1Cc1ccc(Cl)c(F)c1 (stereo not drawn),18.4

row,SMILES,"hERG current change (%, negative = inhibition) at 10uM [%]"
1,Cc1ccc(S(=O)(=O)n2ccc(=O)[nH]2)cc1,0.963
2,Cc1ccc(NC(=O)COc2ccc(/C=C3/SC(=Nc4ccccc4)N(Cc4cccnc4)C3=O)cc2)cc1,0.975
3,O=C(COc1ccc(S(=O)(=O)N2CCCC2)cc1Cl)NCc1cccnc1,-55
4,Cc1[nH]c2ccccc2c1C(=O)C(=O)NCCc1ccc(S(N)(=O)=O)cc1,5.07
5,COCCCC1CCN(C(=O)c2cc(COc3cc(C)ccc3C)on2)CC1,-33.3
6,CCN(CC)CC(O)Cn1c(C)c(-c2ccccc2)c2cc([N+](=O)[O-])ccc21.Cl (stereo not drawn),-65.3
7,Cc1cccc(C)c1NC(=O)COC(=O)c1nonc1N,9.71
8,COC(=O)c1c(NC(=O)CSc2nnnn2C)sc(C)c1C,-9.25
9,Fc1ccc(Oc2nc(-c3ccccc3)nnc2C(F)(F)F)cc1,5.71
10,O=C(O)CC(C(=O)OC1CCCCC1)N1CCOCC1 (stereo not drawn),20.1
11,COc1cc(-c2nc(-c3cccc(C)c3)no2)cc(OC)c1OC,0.668
12,NC(=O)c1cccnc1Oc1ccccc1,-30.8
13,CC(C)(C)c1[nH]nc2c1C(C1C=CCCC1)C(C#N)=C(N)O2 (stereo not drawn),-11
14,CC1=C(C(=O)OC(C)(C)C)C(c2ccc3ccccc3c2)NC(=O)N1C (stereo not drawn),-5.24
15,COc1ccc(NC(=O)CN(C)C(=O)CCNS(=O)(=O)c2ccc(Br)cc2)cc1,-22.8
16,CCC1S/C(=N/N=C/c2ccco2)N(Cc2ccccc2)C1=O (stereo not drawn),-2.1
17,Cc1ccc(-c2n[nH]c(=S)c3ccccc23)cc1S(=O)(=O)NCC1CCCO1 (stereo not drawn),3.73
18,Cc1nn2c(c1-c1ccccc1)N=C(c1ccco1)CC2c1ccccc1 (stereo not drawn),7.69
19,Cc1ccc(C(=O)N2CCN(C(=O)c3ccc(C)cc3)C2)cc1,-15.6
20,CN(C)CCCN1C(=O)C(O)=C(C(=O)c2cccs2)C1c1cccc([N+](=O)[O-])c1 (stereo not drawn),2.8
21,C=CCNC(=S)N/N=C/c1cn(-c2ccccc2)nc1-c1ccc(OC)cc1,5.28
22,Cc1ccc(NC(=O)Cc2nnc(SCC(=O)c3ccc(Br)cc3)n2C)cc1,-14.3
23,Br.Cc1ccc(Nc2nc(-c3ccc(S(=O)(=O)N4CCCC4)cc3)cs2)cc1C,1.22
24,COc1cc(/C=C2\SC(=S)N(NC(=O)c3ccccc3O)C2=O)ccc1O,10.8
25,c1cncc(CNc2nc(-c3cccnc3)nc3ccccc23)c1,-25.3
26,COCCn1c(SCc2ccc(C(=O)OC)o2)nc2ccccc2c1=O,-18.7
27,CCCC(=O)Nc1cc(C(=O)O)ccc1S(=O)(=O)c1ccc(Cl)cc1,10.7
